Experimental data from the supplement of paper PMC12217912.
This is one part of the list. The full chains were built here from the parent and the listed change. Values near 0.05 are background.

B1: TEV protease; numbered along this chain (parent)
chain: MGESLFKGPRDYNPISSSICHLTNESDGHTTSLYGIGFGPFIITNKHLFRRNNGTLVVQSLHGVFKVKDTTTLQQHLVDGRDMIIIRMPKDFPPFPQKLKFREPQREERICLVTTNFQTKSMSSMVSDTSCTFPSGDGIFWKHWIQTKDGQCGSPLVSTRDGFIVGIHSASNFTNTNNYFTSVPKNFMELLTNQEAQQWVSGWRLNADSVLWGGHKVFMVKPEEPFQPVKEATQL

Variants of: B1
Assay: raw area under fraction-flipped curve 0-4 h after induction (AUC4h, not background-subtracted), DNA-recorder readout of cleavage of the substrate (dimensionless); higher = more cleavage of the substrate by the protease variant
Settings: temperature: 34 °C; time window: 0-4 h after rhamnose induction
Description: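 In vivo DNA recorder in E. coli TOP10(DE3) ΔrhaA at 34 °C. Each TEVp single-site mutant (parent TEVp 0) is paired with a single-site variant of the 7-mer TEVs (canonical ENLYFQ|S). The substrate sits between flexible linkers in a Bxb1-sfGFP-TEVs-SsrA fusion, so cleavage stabilises Bxb1 and speeds flipping of a recombination array, read by NGS. The value is the raw area under the fraction-flipped curve over 0-4 h after rhamnose induction (AUC4h), with ≥20 reads per time point. It is not background-subtracted; inactive controls average about 0.047.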
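Note: Bxb1 expression induced with 0.2% (w/v) L-rhamnose at OD600 near 0.5, cultures sampled hourly, flipped fraction per protease–substrate barcode pair counted by paired-end Illumina sequencing.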

Variant	area with substrate ENLCFQS	area with substrate ENLDFQS	area with substrate ENLFFQS	area with substrate ENLHFQS	area with substrate ENLNFQS	area with substrate ENLRFQS	area with substrate ENLIFQS	area with substrate ENLKFQS	area with substrate ENLLFQS	area with substrate ENLPFQS	area with substrate ENLQFQS	area with substrate ENLSFQS	area with substrate ENLWFQS	area with substrate ENLEFQS	area with substrate ENLTFQS	area with substrate ENLVFQS	area with substrate ENLGFQS	area with substrate ENLMFQS
L5P	0.0616	0.0712	0.0562	0.0697	0.056	0.0685	–	–	–	–	–	–	–	–	–	–	–	–
T23A	0.0626	0.0653	–	0.0555	0.0643	–	0.0682	0.08	0.0718	0.0654	0.0663	0.0634	0.0424	–	–	–	–	–
Q59K	–	0.055	0.0919	–	0.0581	0.0728	–	–	–	–	0.0841	0.0721	–	0.0945	0.071	–	–	–
D27G	–	0.0406	–	0.0604	0.061	0.0659	–	0.0772	0.0649	0.0519	–	0.0551	–	0.0311	–	0.0704	–	–
V126C	–	0.0698	0.0942	0.0708	0.0623	0.0786	–	0.0862	–	0.0477	–	0.0772	–	–	–	–	–	–
P94A	–	0.0649	0.115	0.0638	–	0.0757	–	–	–	–	–	–	0.0628	–	–	–	–	–
Y179E	–	0.0756	0.0696	–	0.0604	–	–	–	–	–	–	–	–	–	–	–	0.0575	0.0648
A207K	–	0.0632	0.0693	–	0.055	0.0611	0.0921	–	–	0.0706	0.0985	0.0676	0.0554	0.0678	–	–	–	–
N177I	–	0.0771	–	0.0749	0.0568	0.061	0.136	0.0878	–	–	–	–	0.0709	–	–	–	0.0655	–
F140V	–	0.0622	0.0721	0.0608	0.0647	0.0579	0.0607	0.0594	0.0652	0.0634	0.0699	0.0543	0.0563	0.0563	0.0681	0.0631	0.063	0.0592
E189C	–	0.0677	0.0655	–	0.0789	–	–	0.0461	0.0696	0.0652	–	0.0632	0.0542	0.0665	0.0749	0.0682	–	–
T181F	–	0.0691	0.0621	0.0537	–	0.0475	–	0.0684	0.0462	0.0513	–	–	0.0429	0.0574	0.0658	0.0584	0.0616	0.0439
F187Y	–	0.0531	0.0639	0.0572	0.0613	0.0509	0.073	0.0685	–	–	–	0.0522	–	0.0714	–	–	0.0542	0.0809
S4Y	–	0.0642	–	0.0637	0.0483	0.0842	0.121	0.0859	–	0.0666	0.0858	0.0678	–	–	–	0.131	0.0943	–
S130E	–	0.0627	0.0796	0.0563	0.089	–	–	0.075	0.031	0.0589	–	–	–	0.0579	–	–	–	–
K221S	–	0.0612	0.0643	0.0575	0.0627	–	–	0.0782	–	–	–	0.0669	–	–	0.056	0.076	0.0601	–
K100Y	–	0.0431	0.0786	0.08	–	0.127	0.0887	–	–	0.063	0.052	–	0.0562	–	–	–	–	–

Variant	area with substrate ENLCFQS	area with substrate ENLDFQS	area with substrate ENLFFQS	area with substrate ENLHFQS	area with substrate ENLNFQS	area with substrate ENLRFQS	area with substrate ENLIFQS	area with substrate ENLKFQS	area with substrate ENLLFQS	area with substrate ENLPFQS	area with substrate ENLQFQS	area with substrate ENLSFQS	area with substrate ENLWFQS	area with substrate ENLEFQS	area with substrate ENLTFQS	area with substrate ENLVFQS	area with substrate ENLGFQS	area with substrate ENLMFQS
K98S	–	0.0672	–	–	0.0653	0.0702	–	0.0799	–	0.0593	–	0.0679	–	–	0.0519	–	–	–
K100G	–	0.0663	0.084	–	0.064	0.0735	–	0.0702	–	0.0295	0.0685	0.0119	0.0435	0.0671	–	0.0913	–	–
F226E	–	0.0705	0.0956	–	0.0609	–	0.0951	0.0679	0.0804	0.0509	0.0788	0.0769	–	–	–	0.0897	0.066	–
Q105L	–	0.0585	0.107	0.0753	–	–	0.0834	0.0841	0.0735	0.0612	0.0526	–	0.0663	0.0721	–	0.0832	0.0669	0.0613
W212G	–	0.0782	0.0628	–	0.0675	–	0.0661	0.0599	0.0661	0.0568	0.0597	0.0671	0.053	–	–	0.0629	–	–
N116P	–	0.0571	0.0908	0.0715	0.0643	0.0776	–	0.0758	–	0.0452	0.0909	0.0696	–	0.0741	–	0.0847	0.0635	–
S123N	–	0.059	0.0748	0.0989	0.061	0.0788	0.082	0.0976	0.0824	–	0.0857	0.0661	0.0574	0.0638	–	–	–	0.0682
M122I	–	0.059	0.073	0.0685	0.0571	0.0784	–	0.078	0.0603	0.0473	0.0766	–	0.0344	0.0619	0.0771	0.11	–	0.0759
K148C	–	0.0633	0.102	0.073	0.0648	0.0816	0.0619	0.0698	0.0063	0.0758	0.0717	0.0436	0.0376	–	–	0.0794	0.0505	0.0734
T129L	–	0.0459	0.0674	0.0845	0.0615	0.0417	–	0.0687	–	0.0684	–	0.0553	0.0635	0.0707	0.0624	0.0822	–	–
E195N	–	0.0494	0.087	0.0667	–	0.0753	0.169	0.081	0.0832	0.0607	–	0.0648	–	0.065	0.0964	0.084	0.0862	–
Q75W	–	0.0607	0.0551	0.0416	0.0558	0.0604	0.0605	0.0535	–	0.0497	0.0217	0.041	–	0.0763	–	0.0653	–	0.0535
A207T	–	0.0815	0.0918	0.0687	0.0768	0.0709	–	0.0686	0.0682	–	0.0651	0.0577	0.0914	–	0.0782	0.0818	0.0648	0.0653
R50C	–	0.0601	–	–	–	0.083	0.0906	0.0772	–	–	0.0615	–	0.0661	–	–	–	–	–
I84S	–	0.0638	0.0598	0.0595	–	0.0646	0.0612	0.0598	0.0617	0.0616	–	0.0632	0.0535	0.0677	–	–	–	–
P14K	–	0.0684	0.0783	0.0654	0.0648	–	0.0803	0.0715	0.0881	–	–	0.0653	0.07	0.0505	–	–	–	0.0844
